In patent publication US9458101B2, “Colchicine derivatives, methods and uses thereof” (priority 2009, dated 2016):
Where two headings read alike, the source gives them in different places.

Tests used:
CEM cells = assay: cells; format: cell-based, Human; settings: for IC50: 72 h, read-out: IC50 of cell growth inhibition
[1] = tested on: A549 (Human lung carcinoma); assay: Cytotoxicity testing (MTS) on A549; format: cell-based
Procedure: (§1) Cell lines used were A549 (Human lung carcinoma), HeLa (Human cervical carcinoma), MCF-7 (Human mammary gland adenocarcinoma), CEM (Human T-lymphoblastoid from ALL (Acute lymphoblastic leukemia)), M010B (Human glioma), M006X (Human glioma) and Jurkat (Human T-cell leukemia).
(§2) A series of dilutions were prepared and a wavelength scan of the diluted solution was used to determine the wavelength of maximum absorbance for each compound. Five standardized drug concentrations were scanned at this pre-determined wavelength to obtain an estimate of the compound's extinction coefficient.
(§3) A primary MTS assay was used to test the optimal number of cells for cytotoxicity assays. Cells were trypsinized, counted and introduced into seven lanes of a 96-well plate at different cell numbers (eight replicates per lane). Optimal cell numbers were determined after 72 and 96 hours of growth and were used in subsequent cytotoxicity assays. […] Cell viability was determined using the Cell Titer 96 AQueous One Solution Cell Proliferation Assay (Promega, U.S.A.).
(§4) Fits were performed using a dose-response model ideal for data showing an initial response plateau, a transition region, and a final response plateau.
(§5) [formula] […] Itop is the response obtained at very low/no drug concentration. The data and all parameters were normalized to Itop−Ibot, a measure of the maximum effect of the drug.

[2] = tested on: HeLa (Human cervical carcinoma); assay: Cytotoxicity testing (MTS) on HeLa; format: cell-based
Procedure: as §1, §2, §3, §4, §5

[3] = tested on: MCF-7 (Human mammary gland adenocarcinoma); assay: Cytotoxicity testing (MTS) on MCF-7; format: cell-based
Procedure: as §1, §2, §3, §4, §5

[4] = tested on: CEM (Human T-lymphoblastoid from ALL); assay: Cytotoxicity testing (MTS) on CEM; format: cell-based
Procedure: as §1, §2, §3, §4, §5

M010B (Human glioma) = assay: Cytotoxicity testing (MTS) on M010B; format: cell-based
Procedure: as §1, §2, §3, §4, §5

M006X (Human glioma) = assay: Cytotoxicity testing (MTS) on M006X; format: cell-based
Procedure: as §1, §2, §3, §4, §5

[5] = tested on: A549, HeLa, MCF-7 and CEM cell lines; assay: Cytotoxicity, mean over A549, HeLa, MCF-7 and CEM cell lines
From the text: as §1, §3, §5
Cytotoxicity screening was performed on a number of cell lines based on the cancer of origin and differing morphologies.

[6] = tested on: A549 (Human lung adenocarcinoma); assay: cells; format: cell-based; settings: A549, 72 h, read-out: logIC50 (converted)
From the text: (§6) A set of seven colchicine derivatives purchased from ChemRoutes was screened against a set of four cell lines obtained from the Cross Cancer Institute's frozen human cell line collection. A full factorial experimental design was used, for a total of 28 cases.
(§7) Cell lines used were A549 (Human lung adenocarcinoma), NCI-H226 (Human lung squamous cell carcinoma), CCRF-CEM (Human T-lymphoblastoids from ALL), and MCF-7 (Human mammary gland adenocarcinoma).
(§8) For each (cell line, compound) pair, the following conditions were used, with each condition being assigned to a lane on a microtiter plate: • a. Seven or eight concentration levels between 1×10^−10 M and 1×10^−3 M. • b. A control with cells and media only. • c. A control with cells, media and DMSO only. The DMSO was at a concentration approximately equal to that used in the highest drug concentration level.
(§9) Additionally, 6-8 replicates (wells) of each condition were done on the plate. Drug solutions were prepared by dissolving the solid compounds in DMSO and then diluting in water. An approximately equal number of cells were introduced into each well of the plate and cells were incubated for 72 hours. An MTS assay was performed and absorbance values were measured with a spectrophotometer. Finally, a log IC50 parameter was calculated by fitting a 4-parameter logistic model to the data using an implementation of the Levenberg-Marquardt algorithm.

[7] = tested on: CCRF-CEM (Human T-lymphoblastoids from ALL); assay: cells; format: cell-based; settings: 72 h, read-out: logIC50 (converted)
From the text: as §6, §7, §8, §9

[8] = tested on: NCI-H226 (Human lung squamous cell carcinoma); assay: cells; format: cell-based; settings: NCI-H226, 72 h, read-out: logIC50 (converted)
From the text: as §6, §7, §8, §9

[9] = read-out: IC50 previously reported; Cragg G. M. et al. 2005; cited from earlier work
βII or βIII = settings: assumed for Kd calculation, Banerjee et al. 1992; cited from earlier work
[10] = tested on: MCF-7 (Human mammary gland adenocarcinoma); assay: cells; format: cell-based; settings: MCF7, 72 h, read-out: logIC50 (converted)
From the text: as §6, §7, §8, §9

[11] = Homo sapiens, read-out: logIC50 (converted)

COc1cc2c(c(OC)c1OC)-c1ccc(OC)c(=O)cc1[C@@H](NC(C)=O)CC2 [Colchicine, N-[(7S)-1,2,3,10-tetramethoxy-9-oxo-5,6,7,9-tetrahydrobenzo[α]heptalen-7-yl]acetamide]
IC50 (CEM cells; Homo sapiens, CCRF-CEM): 40 nM | IC50 ([1]; Homo sapiens, A549, read-out: logIC50 (converted)): 347 nM | IC50 [2, 11]: 138 nM | IC50 ([3]; Homo sapiens, MCF7, read-out: logIC50 (converted)): 14.8 nM | IC50 ([4]; Homo sapiens, CCRF-CEM, read-out: logIC50 (converted)): 9.33 nM | IC50 (M010B (Human glioma); [11]): 20 nM | IC50 (M006X (Human glioma); [11]): 4.47 nM | IC50 ([5]; Homo sapiens, read-out: IC50 [log10 M] (mean logIC50) (converted)): 50.1 nM | IC50 [6]: 50.1 nM | IC50 [7]: 7.94 nM | IC50 [8]: 50.1 nM | IC50 [9]: 29 ± 2.2 nM | koff (βII or βIII): 0.00025 s⁻¹

COc1cc2c(c(OC)c1OC)-c1ccc(SC)c(=O)cc1[C@@H](NC(C)=O)CC2 [Compound 39, N-[(7S)-1,2,3-trimethoxy-10-methylsulfanylo-9-oxo-5,6,7,9-tetrahydrobenzo[α]heptalen-7-yl]acetamide, reference compound]
fold lower IC50 than IC50 of Colchicine (CEM cells): about 5 fold | IC50 (CEM cells; Homo sapiens, CCRF-CEM): 8.5 nM | IC50 [6]: 100 nM | IC50 [7]: 2 nM | IC50 [10]: 100000 nM | IC50 [8]: 7.94 nM

COc1c(O)cc2c(c1OC)-c1ccc(SC)c(=O)cc1[C@@H](NC(C)=O)CC2 [Compound 40, N-[(7S)-3-hydroxy-1,2-dimethoxy-3-hydroxy-10-methylsulfanyl-9-oxo-5,6,7,9-tetrahydrobenzo[α]heptalen-7-yl]acetamide]
IC50 (CEM cells; CEM cells, conventional culture): 5.1 ± 1.3 nM | Fraction of cells that survive at the highest drug concentrations (Ibot) ([1]; A549): 0.230 ± 0.027 | logIC50 ([1]; A549): −7.38 ± 0.14 log10 M | Fraction of cells that survive at the highest drug concentrations (Ibot) [2]: 0.039 ± 0.026 | logIC50 [2]: −7.77 ± 0.09 log10 M | Fraction of cells that survive at the highest drug concentrations (Ibot) ([3]; MCF-7): 0.459 ± 0.013 | logIC50 ([3]; MCF-7): −7.37 ± 0.11 log10 M | Fraction of cells that survive at the highest drug concentrations (Ibot) ([4]; CEM): 0.015 ± 0.022 | logIC50 ([4]; CEM): −8.47 ± 0.13 log10 M | Fraction of cells that survive at the highest drug concentrations (Ibot) (M010B (Human glioma); M010B): 0.118 ± 0.026 | logIC50 (M010B (Human glioma); M010B): −7.65 ± 0.10 log10 M | Fraction of cells that survive at the highest drug concentrations (Ibot) (M006X (Human glioma); M006X): 0.061 ± 0.029 | logIC50 (M006X (Human glioma); M006X): −8.34 ± 0.12 log10 M | IC50 [log10 M] (mean logIC50) ([5]; mean over A549, HeLa, MCF-7 and CEM cell lines): −7.74 ± 0.12 log10 M
